Reference: PMC9451060
Where a chain is given by its changes, count along the chain named. No constants are given. Whether binding was seen depends on the method and setting. Binding seen in cells or lysates may run through a third protein. Some results given as binding are weak or reduced against the parent protein; the word gives no strength. For some of these results: Tags and fused reporters may be left off the sequences shown.

Amino acid sequences for entries named in this document (tags omitted).
UniProt Q13547: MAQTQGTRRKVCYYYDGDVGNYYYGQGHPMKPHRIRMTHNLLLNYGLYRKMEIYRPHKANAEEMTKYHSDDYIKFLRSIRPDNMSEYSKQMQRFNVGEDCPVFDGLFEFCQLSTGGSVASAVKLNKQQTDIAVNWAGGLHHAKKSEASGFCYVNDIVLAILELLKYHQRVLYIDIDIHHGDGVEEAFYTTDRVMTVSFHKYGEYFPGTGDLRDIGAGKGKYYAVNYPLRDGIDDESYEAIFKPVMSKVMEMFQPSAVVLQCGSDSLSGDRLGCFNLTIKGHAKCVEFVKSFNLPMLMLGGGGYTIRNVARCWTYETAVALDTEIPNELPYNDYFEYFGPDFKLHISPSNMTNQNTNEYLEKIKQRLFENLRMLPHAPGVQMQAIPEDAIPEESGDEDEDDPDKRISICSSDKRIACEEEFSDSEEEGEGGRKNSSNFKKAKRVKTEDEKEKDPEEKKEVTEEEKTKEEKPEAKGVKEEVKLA
UniProt O43151: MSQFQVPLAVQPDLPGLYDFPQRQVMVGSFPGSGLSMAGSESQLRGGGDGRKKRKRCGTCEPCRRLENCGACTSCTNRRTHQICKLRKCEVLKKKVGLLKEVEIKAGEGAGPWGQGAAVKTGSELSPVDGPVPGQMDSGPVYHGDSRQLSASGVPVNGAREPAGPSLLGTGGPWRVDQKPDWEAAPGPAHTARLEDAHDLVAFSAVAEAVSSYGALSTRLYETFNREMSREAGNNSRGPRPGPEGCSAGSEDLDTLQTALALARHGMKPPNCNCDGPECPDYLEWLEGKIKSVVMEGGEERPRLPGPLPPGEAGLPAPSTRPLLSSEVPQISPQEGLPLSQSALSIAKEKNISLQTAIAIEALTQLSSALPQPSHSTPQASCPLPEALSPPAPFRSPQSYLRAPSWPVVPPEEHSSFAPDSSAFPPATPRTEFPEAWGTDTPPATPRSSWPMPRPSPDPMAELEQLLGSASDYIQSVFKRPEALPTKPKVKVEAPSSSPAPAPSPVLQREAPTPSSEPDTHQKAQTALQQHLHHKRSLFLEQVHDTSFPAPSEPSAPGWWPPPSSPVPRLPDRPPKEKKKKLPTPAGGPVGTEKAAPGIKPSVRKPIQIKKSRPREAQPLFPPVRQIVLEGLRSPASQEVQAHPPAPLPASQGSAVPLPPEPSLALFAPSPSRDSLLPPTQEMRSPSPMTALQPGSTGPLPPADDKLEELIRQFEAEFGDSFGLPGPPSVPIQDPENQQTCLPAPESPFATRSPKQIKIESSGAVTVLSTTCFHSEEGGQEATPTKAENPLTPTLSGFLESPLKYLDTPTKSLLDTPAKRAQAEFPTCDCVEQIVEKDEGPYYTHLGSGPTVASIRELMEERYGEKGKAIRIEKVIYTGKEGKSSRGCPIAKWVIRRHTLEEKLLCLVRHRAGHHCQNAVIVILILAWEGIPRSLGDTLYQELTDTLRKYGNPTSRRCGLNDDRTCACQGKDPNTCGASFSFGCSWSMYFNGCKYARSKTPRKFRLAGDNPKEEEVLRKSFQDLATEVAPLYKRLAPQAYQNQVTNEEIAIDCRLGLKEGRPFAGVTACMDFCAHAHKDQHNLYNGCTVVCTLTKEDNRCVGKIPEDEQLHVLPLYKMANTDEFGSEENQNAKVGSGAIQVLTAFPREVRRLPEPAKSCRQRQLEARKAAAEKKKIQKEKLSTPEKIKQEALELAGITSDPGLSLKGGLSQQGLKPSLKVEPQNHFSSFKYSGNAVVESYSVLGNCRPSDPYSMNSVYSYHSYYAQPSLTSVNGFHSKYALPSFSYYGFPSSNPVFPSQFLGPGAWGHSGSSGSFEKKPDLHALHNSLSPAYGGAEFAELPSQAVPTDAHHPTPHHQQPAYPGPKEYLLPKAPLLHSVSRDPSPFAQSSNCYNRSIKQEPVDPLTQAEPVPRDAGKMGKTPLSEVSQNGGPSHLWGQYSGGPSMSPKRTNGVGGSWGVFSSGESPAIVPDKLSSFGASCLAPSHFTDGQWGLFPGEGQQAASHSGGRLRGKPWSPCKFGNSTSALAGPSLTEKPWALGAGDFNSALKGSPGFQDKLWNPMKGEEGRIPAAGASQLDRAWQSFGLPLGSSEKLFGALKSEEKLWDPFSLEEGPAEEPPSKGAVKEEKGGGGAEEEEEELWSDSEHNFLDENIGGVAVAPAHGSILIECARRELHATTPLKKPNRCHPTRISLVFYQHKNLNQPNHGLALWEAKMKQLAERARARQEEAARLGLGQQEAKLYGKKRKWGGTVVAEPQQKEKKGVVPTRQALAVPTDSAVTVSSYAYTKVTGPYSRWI

Experiments:
[1] = target: T1, endogenous SPHK2 (sphingosine kinase 2) (human (endogenous in A549)) (UniProt Q9NRA0); test: co-IP
T1 sequence: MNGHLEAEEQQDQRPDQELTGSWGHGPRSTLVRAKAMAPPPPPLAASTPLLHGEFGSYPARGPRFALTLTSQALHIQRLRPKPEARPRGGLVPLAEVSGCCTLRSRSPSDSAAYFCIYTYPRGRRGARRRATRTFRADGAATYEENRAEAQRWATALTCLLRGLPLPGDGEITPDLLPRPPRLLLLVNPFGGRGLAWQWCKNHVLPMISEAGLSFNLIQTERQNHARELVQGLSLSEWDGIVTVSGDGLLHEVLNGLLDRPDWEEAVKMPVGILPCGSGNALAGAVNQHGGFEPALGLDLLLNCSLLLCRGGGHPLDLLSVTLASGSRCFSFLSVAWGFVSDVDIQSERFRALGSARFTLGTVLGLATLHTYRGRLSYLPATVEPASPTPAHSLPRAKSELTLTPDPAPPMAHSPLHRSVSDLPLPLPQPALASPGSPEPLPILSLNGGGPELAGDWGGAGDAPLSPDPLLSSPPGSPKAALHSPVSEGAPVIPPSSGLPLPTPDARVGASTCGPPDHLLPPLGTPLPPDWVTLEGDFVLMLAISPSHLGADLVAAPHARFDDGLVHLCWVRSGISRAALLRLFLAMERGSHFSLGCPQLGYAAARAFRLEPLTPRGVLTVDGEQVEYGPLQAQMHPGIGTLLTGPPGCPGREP

[2] = target: T2, Myc-SPHK2-G212E (catalytic-incompetent mutant) (human) (UniProt Q9NRA0); test: co-IP; A549 cells transfected with Myc-tagged SPHK2 constructs; Triton X-100 lysis buffer (20 mM Tris-HCl pH 7.5, 100 mM NaCl, 0.5 mM EDTA, 5% glycerol, 1% Triton X-100); anti-Myc antibody and protein A/G beads, 4°C 4 h; blots for endogenous HDAC1 and TET3
T2 sequence: T1 sequence with G212E

[3] = target: T3, Myc-tagged SPHK2 (sphingosine kinase 2), full length (human) (UniProt Q9NRA0); test: as above
T3 sequence: T1 sequence

[4] = target: T1, endogenous SPHK2 (sphingosine kinase 2) (human (endogenous in A549)); test: co-IP; uninfected A549 cells; endogenous SPHK2 precipitated with anti-human SPHK2 polyclonal antibody (Proteintech 17096-1-AP); blots for HDAC1 and TET3
[5] = target: T4, Myc-SPHK2-F1 (Δ1–69) (human) (UniProt Q9NRA0); test: co-IP; A549 cells transfected with Myc-tagged SPHK2 constructs; Triton X-100 lysis buffer (20 mM Tris-HCl pH 7.5, 100 mM NaCl, 0.5 mM EDTA, 5% glycerol, 1% Triton X-100); anti-Myc antibody and protein A/G beads, 4°C 4 h; blots for endogenous HDAC1 and TET3
T4 sequence: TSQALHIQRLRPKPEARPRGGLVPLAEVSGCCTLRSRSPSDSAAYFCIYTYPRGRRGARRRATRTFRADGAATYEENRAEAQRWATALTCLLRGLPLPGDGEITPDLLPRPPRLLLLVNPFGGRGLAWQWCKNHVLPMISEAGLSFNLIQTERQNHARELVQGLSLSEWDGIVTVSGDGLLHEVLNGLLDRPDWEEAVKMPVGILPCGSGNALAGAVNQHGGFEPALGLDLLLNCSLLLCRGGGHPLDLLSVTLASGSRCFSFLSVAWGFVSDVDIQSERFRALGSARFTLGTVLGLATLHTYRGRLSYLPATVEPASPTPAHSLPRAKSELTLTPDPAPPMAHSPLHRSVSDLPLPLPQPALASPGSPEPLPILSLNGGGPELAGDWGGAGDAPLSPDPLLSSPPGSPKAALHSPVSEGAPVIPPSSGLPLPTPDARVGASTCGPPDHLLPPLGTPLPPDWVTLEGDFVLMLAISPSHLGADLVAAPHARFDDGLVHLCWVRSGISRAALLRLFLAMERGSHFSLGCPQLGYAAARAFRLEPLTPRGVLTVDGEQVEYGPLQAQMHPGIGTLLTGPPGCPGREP

[6] = target: T5, Myc-SPHK2-F2 (Δ391–514) (human) (UniProt Q9NRA0); test: as above
T5 sequence: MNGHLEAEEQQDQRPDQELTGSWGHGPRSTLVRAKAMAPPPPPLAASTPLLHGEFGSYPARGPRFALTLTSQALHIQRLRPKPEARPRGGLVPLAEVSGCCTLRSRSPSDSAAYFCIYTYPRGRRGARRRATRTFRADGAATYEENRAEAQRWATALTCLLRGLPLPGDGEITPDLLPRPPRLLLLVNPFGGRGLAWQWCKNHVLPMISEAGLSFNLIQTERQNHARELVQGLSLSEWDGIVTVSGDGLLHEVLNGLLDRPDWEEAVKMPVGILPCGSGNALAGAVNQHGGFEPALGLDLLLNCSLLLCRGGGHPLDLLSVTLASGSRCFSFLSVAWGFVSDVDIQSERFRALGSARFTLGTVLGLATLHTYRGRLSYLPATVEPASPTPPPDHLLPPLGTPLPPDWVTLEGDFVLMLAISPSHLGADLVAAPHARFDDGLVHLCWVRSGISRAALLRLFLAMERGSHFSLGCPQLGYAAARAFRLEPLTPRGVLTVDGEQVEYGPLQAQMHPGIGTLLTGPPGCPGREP

[7] = target: T6, Myc-SPHK2-F3 (Δ245–248) (human) (UniProt Q9NRA0); test: as above
T6 sequence: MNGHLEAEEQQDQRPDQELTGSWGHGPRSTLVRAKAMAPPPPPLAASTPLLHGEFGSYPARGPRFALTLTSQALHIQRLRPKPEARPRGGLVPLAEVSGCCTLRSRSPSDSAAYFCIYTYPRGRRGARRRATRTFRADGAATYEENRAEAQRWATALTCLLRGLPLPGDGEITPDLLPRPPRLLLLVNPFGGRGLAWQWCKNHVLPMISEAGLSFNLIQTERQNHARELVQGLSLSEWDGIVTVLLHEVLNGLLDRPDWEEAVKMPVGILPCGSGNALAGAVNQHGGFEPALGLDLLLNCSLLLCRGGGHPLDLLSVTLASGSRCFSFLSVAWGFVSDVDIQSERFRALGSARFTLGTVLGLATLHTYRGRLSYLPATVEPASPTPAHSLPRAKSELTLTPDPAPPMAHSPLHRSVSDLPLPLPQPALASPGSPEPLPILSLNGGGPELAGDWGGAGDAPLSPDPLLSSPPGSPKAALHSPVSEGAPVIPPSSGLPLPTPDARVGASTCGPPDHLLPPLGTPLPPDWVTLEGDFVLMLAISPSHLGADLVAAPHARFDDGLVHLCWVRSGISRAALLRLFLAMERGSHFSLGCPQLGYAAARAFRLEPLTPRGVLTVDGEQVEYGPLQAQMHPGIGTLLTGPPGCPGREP

Row | binding [1] | binding [2] | binding [3] | binding [5] | binding [6] | binding [7] | Substance | binding [4]
1 | binds | binds | binds |  |  |  | endogenous HDAC1 (histone deacetylase 1) (from UniProt Q13547 1-482) (enzyme) | 
2 | binds | binds | binds | binds | binds | no binding | endogenous TET3 (ten-eleven translocation protein 3) (from UniProt O43151 1-1795) (enzyme) | no binding (condition: in uninfected A549 cells)
